Data on 19 variants can be found in the RNAGym collection of RNA variant scans (doi:10.1073/pnas.2313332121).

B1: TPR 5TU (parent)
chain: GGAUCUUCUCGAUCUAACAAAAAAGACAAAUCUGCCACAAAGCUUGAGAGCAUCUUCGGAUGCAGAGGCGGCAGCCUUCGGUGGCGCGAUAGCGCCAACGUUCUCAACUAUGACACGCAAAACGCGUGCUCCGUUGAAUGGAGUUUAUCAUG

Variants at the floor of the assay are shown more often than the library holds them.

The variants in the series derive from B1. Kind of series: polymerase ribozyme fitness, log enrichment relative to wild type (log ratio); higher = more active; in vitro selection for triplet polymerase activity. The essentials: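 Input and output libraries were sequenced on Illumina after a single in vitro selection round, run in triplicate on PCR-built, transcribed mutant libraries of each subunit of a heterodimeric triplet polymerase ribozyme. Selection annealed libraries to a biotinylated primer, the partner subunit and triplets, incubated them frozen at −7 °C, then gel-excised extended constructs for streptavidin-bead capture and RT-PCR. Genotypes with ≥10 input reads and ≥1 read per output were kept. Fitness is the logarithm, taken in base 2, of genotype enrichment divided by wild-type enrichment, using inverse-variance-weighted replicate averages.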
As for GGAUCUUCUCGAUCUAACAAAAAAGACAAAUCUGCCACAAAGCUUGAGAGCAUCUUCGGAUGCAGAGGCGGCAGCCUUCGGUAGCGCGAUGGUGCCAACGUUCUCAACUAUGACACGCAAAACGCGUGCUCCGUUGAAUGGAGUUUAUAAUG [G83A A91G C93U C149A], the “polymerase ribozyme fitness (log ratio)” value was ≤ -4.2.

In the case of GGAUCUUCUCGAUCUAACAAAAAAGACAAAUCUGCCACAAAGCUUGAGAGCAUCUUCGGAUGCAGAGGCGGCAGCCUUCGGGGUCGCGAUAGCGCCAAUGUUCUCAACUAUGACACGCAAAACGCGUCCUCCGUUGAAUGGAGUUUAUCAUG [U82G G84U C99U G128C], the “polymerase ribozyme fitness (log ratio)” value was ≤ -4.2.

Regarding GGAUCUUCUCGAUCUAACAAAAAAGACAAAUCUGCCACAAAGCUUGAGAGCAUCUUCGGAUGCAGAGGCGGCAGCCUUCGGUAGCGCGAUAGCGCCAACGUUCUCAACUAUGACGCGCAAAACGCGUGCUCCGUUGAAUGGAGUUUAUCAUG [G83A A115G], the “polymerase ribozyme fitness (log ratio)” value is -1.64.

Regarding GGAUCUUCUCGAUCUAACAAAAAAGACAAAUCUGCCACAAAGCUUGAGAGCAUCUUCGGAUGCAGAGGCGGCAGCCUUCGGGGGCGAGAUAGAGCCAACGUUCUCAACUAUGACACGCAAAACGCGUGCUCCGUUGAAUGGAGUUUAUCAUG [U82G C87A C93A], the “polymerase ribozyme fitness (log ratio)” value was ≤ -4.2.

GGAUCUUCUCGAUCUAACAAAAAAGACAAAUCUGCCACAAAGCUUGAGAGCAUCUUCGGAUGCAGAGGCGGCAGCCUUCGGGGGCUCGAUAGCGCCAACGUUCUCAGCUAUGACACGCAAAACGCGUGCUCCGUUGAAUGGAGUUUAUCAUG [U82G G86U A107G]: the “polymerase ribozyme fitness (log ratio)” value was ≤ -4.2.

Turning to GGAUCUUCUCGAUCUAACAAAAAAGACAAAUCUGCCACAAAGCUUGAGAGCAUCUUCGGAUGCAGAGGCGGCAGCCUUCGGUAGCGCGAUAGCGCCAUCGUUCUCAACUAUGACACGCAAAACGCGUGCUCCGUUGAAUGGAGUUUAUCAUG [G83A A98U], the “polymerase ribozyme fitness (log ratio)” value is -0.299.

As for GGAUCUUCUCGAUCUAACAAAAAAGACAAAUCUGCCACAAAGCUUGAGAGCAUCUUCGGAUGCAGAGGCGGCAGCCUUCGGUAGCGCGAUAGCGCCAACGUUCUCAACUAUGACCCGCAAAUCGCGUGCUCCGAUGAAUGGAGUUUAUCAUG [G83A A115C A122U U134A], the “polymerase ribozyme fitness (log ratio)” value is -3.03.

Consider GGAUCUUCUCGAUCUAACAAAAAAGACAAAUCUGCCACAAAGCUUGAGAGCAUCUUCGGAUGCAGAGGCGGCAGCCUUCGGUAGAGAGAUAGCGCCAACGUUCUCAACUAUGUCACGCAAAACGCGUGCUCCGUUGAAUGGAGUUUAUCAUG [G83A C85A C87A A113U], for which the “polymerase ribozyme fitness (log ratio)” value is ≤ -4.2.

Turning to GGAUCUUCUCGAUCUAACAAAAAAGACAAAUCUGCCACAAAGCUUGAGAGCAUCUUCGGAUGCAGAGGCGGCAGCCUUCGGGGGCGCGAUAUCGCCAACGUUCUCAACUAUGACACGCAAAACGCGUGCUACGUUGAAUGGAGUUUAUCAUG [U82G G92U C131A], the “polymerase ribozyme fitness (log ratio)” value was -3.24.

Regarding GGAUCUUCUCGAUCUAACAAAAAAGACAAAUCUGCCACAAAGCUUGAGAGCAUCUUCGGAUGCAGAGGCGGCAGCCUUCGGGGGCGCGAUAGCGACAACGUUCUCAACUUUGACACGCAAAACGCGUGCUCCGUUGAUUGGAGUUUAUCAUG [U82G C95A A110U A138U], the “polymerase ribozyme fitness (log ratio)” value was ≤ -4.2.

With GGAUCUUCUCGAUCUAACAAAAAAGACAAAUCUGCCACAAAGCUUGAGAGCAUCUUCGGAUGCAGAGGCGGCAGCCUUCGGUAGCGCGAUAGCGCCCACGUUCUCAACUAUGACACGCAAAACGCGUGCUCCGUUGAAAGGAGUUUAUCAUG [G83A A97C U139A], the “polymerase ribozyme fitness (log ratio)” value was ≤ -4.2.

Take GGAUCUUCUCGAUCUAACAAAAAAGACAAAUCUGCCACAAAGCUUGAGAGCAUCUUCGGAUGCAGAGGCGGCAGCCUUCGGGGGGGCGAUAGCGCCAACGUUCUAAACUAUGACACGCAAAACGCGUGCUCCGUUAAAUGGAGUAUAUCAUG [U82G C85G C105A G136A U145A]: the “polymerase ribozyme fitness (log ratio)” value was ≤ -4.2.

Turning to GGAUCUUCUCGAUCUAACAAAAAAGACAAAUCUGCCACAAAGCUUGAGAGCAUCUUCGGAUGCAGAGGCGGCAGCCUUCGGGGGCGCGAUAGCGCCAACGUUCCCAACUAUGACAUGCAAAACGUGUGCUCCGUUGACUGGAGUUUAUCAUG [U82G U104C C116U C125U A138C], the “polymerase ribozyme fitness (log ratio)” value was ≤ -4.2.

GGAUCUUCUCGAUCUAACAAAAAAGACAAAUCUGCCACAAAGCUUGAGAGCAUCUUCGGAUGCAGAGGCGGCAGCCUUCGGUAGCGCGAUAGCGCCAACGUUCUCAACUAUGACGCGCAAAACGCGUGCUCCGUUGAAUGGAGUUUAUCGUG [G83A A115G A150G]: the “polymerase ribozyme fitness (log ratio)” value was -2.88.

Take GGAUCUUCUCGAUCUAACAAAAAAGACAAAUCUGCCACAAAGCUUGAGAGCAUCUUCGGAUGCAGAGGCGGCAGCCUUCGGUAGCGCGAUAGCGCCAACGUUCUCAACUAUGACACGCCAAACGCGUGCUCCGUUGGAUGGAAUUUAUCAUG [G83A A119C A137G G143A]: the “polymerase ribozyme fitness (log ratio)” value is -2.54.

Turning to GGAUCUUCUCGAUCUAACAAAAAAGACAAAUCUGCCACAAAGCUUGAGAGCAUCUUCGGAUGCAGAGGCGGCAGCCUUCGGGGGCGCGAUAGCGCCAACGUUCUCAACUAUGACACGCAAAACGCGUGCUCCGUUGAAUGUAGUUUAUCAUG [U82G G141U], the “polymerase ribozyme fitness (log ratio)” value worked out at 1.45.

Regarding GGAUCUUCUCGAUCUAACAAAAAAGACAAAUCUGCCACAAAGCUUGAGAGCAUCUUCGGAUGCAGAGGCGGCAGCCUUCGGUAGCGCGAUAGCGCCAACGUUCUCAACUAUGACCCGCAAAACGCGUGCUCCGUAGAAUGGAAUGUAUCAUG [G83A A115C U135A G143A U145G], the “polymerase ribozyme fitness (log ratio)” value is ≤ -4.2.

With GGAUCUUCUCGAUCUAACAAAAAAGACAAAUCUGCCACAAAGCUUGAGAGCAUCUUCGGAUGCAGAGGCGGCAGCCUUCGGUAGCGCGAUUGCGCCAACUUUCUCAACUAUGACACGCAAAACGCGUGCUCCGUUGAAUGGAGUUUAUCAUG [G83A A91U G100U], the “polymerase ribozyme fitness (log ratio)” value was ≤ -4.2.

Consider GGAUCUUCUCGAUCUAACAAAAAAGACAAAUCUGCCACAAAGCUUGAGAGCAUCUUCGGAUGCAGAGGCGGCAGCCUUCGGGGGCUCGAUAGCGCCAACGUUCUCAACUAUGACACGCAAAAUGCGUGCUCCGUUGAAUGGAGUUUAUCAUG [U82G G86U C123U], for which the “polymerase ribozyme fitness (log ratio)” value was -1.47.
